# A collection of fitness landscapes (doi:10.1126/science.1257360)
# The list shows a part of the results.
# B1: PhoQ; a variant is named by its letters at X, in order, P23837 (parent)
# chain: MKKLLRLFFPLSLRVRFLLATAAVVLVLSLAYGMVALIGYSVSFDKTTFRLLRGESNLFYTLAKWENNKLHVELPENIDKQSPTMTLIYDENGQLLWAQRDVPWLMKMIQPDWLKSNGFHEIEADVNDTSLLLSGDHSIQQQLQEVREDDDDAEMTHSVAVNVYPATSRMPKLTIVVVDTIPVELKSSYMVWSWFIYVLSANLLLVIPLLWVAAWWSLRPIEALAKEVRELEEHNRELLNPATTRELTSLVRNLNRLLKSERERYDKYRTTLTDLTHSLKTPLXXLQXXLRSLRSEKMSVSDAEPVMLEQISRISQQIGYYLHRASMRGGTLLSRELHPVAPLLDNLTSALNKVYQRKGVNISLDISPEISFVGEQNDFVEVMGNVLDNACKYCLEFVEISARQTDEHLYIVVEDDGPGIPLSKREVIFDRGQRVDTLRPGQGVGLAVAREITEQYEGKIVAGESMLGGARMEVIFGRQHSAPKDE
# Variants of: B1
# Assay: enrichment ratio after two sorts for PhoP signalling (ratio (wild type AVST 3.29)); higher = more functional
# Conditions: with PhoP (E. coli)
row,Variant,enrichment ratio
1,SNHC,≤ 0.25
2,QACL,1.94
3,VQHM,≤ 0.25
4,FTNH,≤ 0.25
5,SYEN,≤ 0.25
6,YQFG,≤ 0.25
7,GVVC,≤ 0.25
8,PQFC,≤ 0.25
9,WMTA,≤ 0.25
10,TGTI,13.2
11,FQDV,≤ 0.25
12,QRCY,≤ 0.25
13,QSNA,≤ 0.25
14,IVIG,≤ 0.25
15,QCMT,≤ 0.25
16,RMDR,≤ 0.25
17,KKRS,≤ 0.25
18,RRSQ,≤ 0.25
19,HLPM,≤ 0.25
20,WDQE,≤ 0.25
21,EFMG,≤ 0.25
22,PGMG,≤ 0.25
23,KKPI,≤ 0.25
24,GHLY,≤ 0.25

row,Variant,enrichment ratio
1,KEML,≤ 0.25
2,NLFW,≤ 0.25
3,IMAS,0.485
4,HGYQ,≤ 0.25
5,GQSG,4.15
6,LEAV,≤ 0.25
7,NIDI,≤ 0.25
8,TAQA,≤ 0.25
9,IMWP,≤ 0.25
10,WKHV,≤ 0.25
11,HVLW,≤ 0.25
12,RPLA,≤ 0.25
13,EQWS,≤ 0.25
14,MRAA,≤ 0.25
15,RGGW,≤ 0.25
16,VNAN,≤ 0.25
17,ESDK,≤ 0.25
18,VISW,≤ 0.25
19,HTHW,≤ 0.25
20,KLSI,≤ 0.25
21,SEDT,≤ 0.25
22,FMEW,≤ 0.25
23,PRMT,≤ 0.25
24,FGPF,0.931

row,Variant,enrichment ratio
1,LCLM,0.3
2,QINK,≤ 0.25
3,LGCA,≤ 0.25
4,KSFG,≤ 0.25
5,ITKD,≤ 0.25
6,KQTG,≤ 0.25
7,SHYD,≤ 0.25
8,ANSQ,8.17
9,YNKE,≤ 0.25
10,HRNH,≤ 0.25
11,LWYR,≤ 0.25
12,RCYH,≤ 0.25
13,ASDK,≤ 0.25
14,SFFA,≤ 0.25
15,RFNG,≤ 0.25
16,YTSE,≤ 0.25
17,YPMF,≤ 0.25
18,YTQG,≤ 0.25
19,RRMY,≤ 0.25
20,MYWY,≤ 0.25
21,SDYN,≤ 0.25
22,FCRN,≤ 0.25
23,GYFI,≤ 0.25
24,YHHM,≤ 0.25

row,Variant,enrichment ratio
1,LCCM,≤ 0.25
2,QCPF,≤ 0.25
3,IYPY,≤ 0.25
4,AFDI,≤ 0.25
5,NPFD,≤ 0.25
6,TWVD,≤ 0.25
7,SINL,3.51
8,MEAQ,10.4
9,QYDF,≤ 0.25
10,DSRE,≤ 0.25
11,MMCN,3.36
12,QGFP,≤ 0.25
13,FQCM,10.7
14,QNAN,≤ 0.25
15,QPWR,≤ 0.25
16,MIMH,≤ 0.25
17,ENIH,≤ 0.25
18,HKVR,≤ 0.25
19,AIIV,3.98
20,YTAW,≤ 0.25
21,QQWF,≤ 0.25
22,HSAS,0.421
23,SVCA,9.74
24,TSLI,11.8

row,Variant,enrichment ratio
1,PTLW,≤ 0.25
2,LWTR,≤ 0.25
3,ICFW,≤ 0.25
4,TCFQ,≤ 0.25
5,TPWF,≤ 0.25
6,NKLM,≤ 0.25
7,VWEV,≤ 0.25
8,WFLK,≤ 0.25
9,DRAY,≤ 0.25
10,MDWL,≤ 0.25
11,SKDD,≤ 0.25
12,TDIL,1.54
13,DPMP,≤ 0.25
14,LHLP,≤ 0.25
15,AMMM,8.4
16,VLGS,≤ 0.25
17,GFWK,≤ 0.25
18,VYWA,≤ 0.25
19,MNVW,≤ 0.25
20,AMTA,7.86
21,NIFL,≤ 0.25
22,HARI,≤ 0.25
23,MYWQ,≤ 0.25
24,QYLC,≤ 0.25

row,Variant,enrichment ratio
1,NTFD,≤ 0.25
2,TCRG,≤ 0.25
3,HKAC,≤ 0.25
4,NKPE,≤ 0.25
5,LPQV,≤ 0.25
6,KILM,≤ 0.25
7,HRTA,≤ 0.25
8,FCGR,≤ 0.25
9,FDAL,≤ 0.25
10,VFWF,≤ 0.25
11,HQFS,≤ 0.25
12,FASI,≤ 0.25
13,MPIR,≤ 0.25
14,TRFM,≤ 0.25
15,WRCT,≤ 0.25
16,QILA,≤ 0.25
17,QQLQ,≤ 0.25
18,KLIR,≤ 0.25
19,LNDE,≤ 0.25
20,PGVE,≤ 0.25
21,RWNN,≤ 0.25
22,MNVF,≤ 0.25
23,EDQV,≤ 0.25
24,VPPS,≤ 0.25

row,Variant,enrichment ratio
1,HTDW,≤ 0.25
2,ETEL,≤ 0.25
3,RALK,≤ 0.25
4,QQVR,≤ 0.25
5,DDCL,≤ 0.25
6,GMVW,≤ 0.25
7,MKMY,≤ 0.25
8,ETTL,≤ 0.25
9,KCFY,≤ 0.25
10,RTLT,≤ 0.25
11,WEMC,≤ 0.25
12,PTMY,≤ 0.25
13,WKHG,≤ 0.25
14,DPEL,≤ 0.25
15,WSTE,≤ 0.25
16,FHEN,≤ 0.25
17,YQMN,≤ 0.25
18,VWHQ,≤ 0.25
19,MIGV,1.71
20,PNIK,≤ 0.25
21,HRWP,≤ 0.25
22,STNV,0.624
23,EMSN,≤ 0.25
24,IRTQ,≤ 0.25

row,Variant,enrichment ratio
1,MKYF,≤ 0.25
2,TELK,8.68
3,QVVY,≤ 0.25
4,PVIA,≤ 0.25
5,TLER,≤ 0.25
6,AWTH,≤ 0.25
7,TKMI,38.2
8,MGNG,≤ 0.25
9,TFFY,≤ 0.25
10,LGAT,≤ 0.25
11,MSLM,15.9
12,NEIS,≤ 0.25
13,EVLI,≤ 0.25
14,NRRD,≤ 0.25
15,HHYH,≤ 0.25
16,KTNS,≤ 0.25
17,RRPR,≤ 0.25
18,ICSS,≤ 0.25
19,VLMD,≤ 0.25
20,GSIW,≤ 0.25
21,YQYV,≤ 0.25
22,WYKH,≤ 0.25
23,CYHS,≤ 0.25
24,NGFG,≤ 0.25

row,Variant,enrichment ratio
1,SCWY,≤ 0.25
2,PIPE,≤ 0.25
3,PPQV,≤ 0.25
4,KFGE,≤ 0.25
5,MTSV,0.634
6,TEVG,10.9
7,RNEP,≤ 0.25
8,RASY,≤ 0.25
9,QFDI,≤ 0.25
10,FFIE,≤ 0.25
11,TRMR,≤ 0.25
12,DDLF,≤ 0.25
13,VNFM,≤ 0.25
14,HCSV,≤ 0.25
15,LMWD,≤ 0.25
16,RMIA,≤ 0.25
17,VIFA,≤ 0.25
18,GQRR,≤ 0.25
19,WVVF,≤ 0.25
20,RDIW,≤ 0.25
21,NTYS,≤ 0.25
22,ICQC,≤ 0.25
23,AQGA,≤ 0.25
24,IMSC,≤ 0.25

row,Variant,enrichment ratio
1,GYKN,≤ 0.25
2,MRRV,≤ 0.25
3,TMMW,≤ 0.25
4,IYAM,≤ 0.25
5,HAKH,≤ 0.25
6,YWWY,≤ 0.25
7,MFGN,≤ 0.25
8,DDQI,≤ 0.25
9,PNYK,≤ 0.25
10,RVPY,≤ 0.25
11,SVMI,4.6
12,TCRS,≤ 0.25
13,RYGW,≤ 0.25
14,TEPE,≤ 0.25
15,KKLS,≤ 0.25
16,NRRI,≤ 0.25
17,QRDA,≤ 0.25
18,NYYY,≤ 0.25
19,NLST,≤ 0.25
20,NMYD,≤ 0.25
21,SWCK,≤ 0.25
22,NKGY,3.33
23,FTCF,3.06
24,KFPG,≤ 0.25

row,Variant,enrichment ratio
1,GQSQ,≤ 0.25
2,YFPL,≤ 0.25
3,TRCS,5.35
4,APQW,≤ 0.25
5,NCNK,≤ 0.25
6,VSCA,≤ 0.25
7,WISH,≤ 0.25
8,EREP,≤ 0.25
9,LPWP,≤ 0.25
10,ETQH,≤ 0.25
11,KMCL,≤ 0.25
12,PESF,≤ 0.25
13,TLCV,1.7
14,HQLA,≤ 0.25
15,KGII,≤ 0.25
16,TIAD,≤ 0.25
17,GMHV,≤ 0.25
18,KTTY,≤ 0.25
19,GFLA,≤ 0.25
20,WNFY,≤ 0.25
21,TAWM,9.41
22,PKWA,≤ 0.25
23,VWRI,≤ 0.25
24,IEVK,≤ 0.25

row,Variant,enrichment ratio
1,EGRS,≤ 0.25
2,QGLK,1.02
3,EKSI,≤ 0.25
4,YAMC,≤ 0.25
5,YDLW,≤ 0.25
6,EPPV,≤ 0.25
7,REDK,≤ 0.25
8,NSLT,≤ 0.25
9,QECC,≤ 0.25
10,FKAL,≤ 0.25
11,KVFK,≤ 0.25
12,RSVW,≤ 0.25
13,GDTN,≤ 0.25
14,TGFV,2.07
15,KNNT,≤ 0.25
16,NEKM,≤ 0.25
17,VQVA,≤ 0.25
18,YSFM,≤ 0.25
19,YPGP,≤ 0.25
20,SITF,11.8
21,VCSE,≤ 0.25
22,PVWI,≤ 0.25
23,MELN,≤ 0.25
24,GNSW,≤ 0.25

row,Variant,enrichment ratio
1,WVFS,≤ 0.25
2,NEQN,≤ 0.25
3,WFPG,≤ 0.25
4,IWGI,≤ 0.25
5,DDYH,≤ 0.25
6,IQYK,≤ 0.25
7,AEEG,≤ 0.25
8,PFDQ,≤ 0.25
9,IYVL,≤ 0.25
10,YPWQ,≤ 0.25
11,YHPW,≤ 0.25
12,KVES,≤ 0.25
13,AGVC,3.46
14,SYTT,≤ 0.25
15,FIPR,≤ 0.25
16,DFED,≤ 0.25
17,VAMC,≤ 0.25
18,MTLW,≤ 0.25
